From patent US20240376128A1, “N-CYCLOPROPYLPYRIDO [4, 3-D] PYRIMIDIN-4-AMINE DERIVATIVES AND USES THEREOF” (Jacobio Pharmaceuticals Co., Ltd., priority 2021, published 2024)

What was measured:
[1] = system: K-Ras mutant and K-Ras WT cell lines indicated in Table 20; assay: 3D cell growth inhibition assay (CellTiter-Glo 3D, 6 days); type: cell-based; settings: 144 h
[2] = Mouse pharmacokinetic study; type: in vivo; settings: female, Balb/c mouse, single dose 10 mg/kg, po, plasma; for AUC(0-t): read-out: AUC0-8h; for Cmax: read-out: Cmax
Procedure, shortened: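 Female Balb/c mice (n=3/group) received a single 3 mg/kg iv dose (sampled 0.083–8 h) or 10 mg/kg po (0.5–8 h). Plasma levels were measured by LC-MS/MS. Prodrugs were given po only, at a dose equal to 10 mg/kg parent, with both prodrug and parent measured.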

[3] = TCC-PAN2 (K-Ras G12R), absolute IC50, read-out: Cell Growth Inhibition, IC50, TCC-PAN2
[4] = Homo sapiens, MKN-1 (K-Ras WT), absolute IC50, read-out: Cell Growth Inhibition, IC50, MKN-1
[5] = Homo sapiens, NCI-H358 (K-Ras G12C), absolute IC50, read-out: Cell Growth Inhibition, IC50, NCI-H358
[6] = Homo sapiens, NCI-H460 (K-Ras Q61H), absolute IC50, read-out: Cell Growth Inhibition, IC50, NCI-H460

Compound | IC50 [1, 3] [nM] | IC50 [1, 4] [nM] | IC50 [1, 5] [nM] | IC50 [1, 6] [nM] | AUC(0-t) [2] [ng·h/mL] | Cmax [2] [ng/mL]
C#Cc1c(F)ccc2cc(O)cc(-c3ncc4c(N(CC)[C@@H]5C[C@H]5F)nc(OC[C@@]56CCCN5C[C@H](F)C6)nc4c3F)c12.O=C(O)C(F)(F)F (mixture of isomers) [Compound 6, 4-(4-(ethyl(trans-2-fluorocyclopropyl)amino)-8-fluoro-2-(((2R,7aS)-2-fluorotetrahydro-1H-pyrrolizin-7a(5H)-yl)methoxy)pyrido[4,3-d]pyrimidin-7-yl)-5-ethynyl-6-fluoronaphthalen-2-ol 2,2,2-trifluoroacetic acid] | > 1000 | 52.3 | 14.5 | 382 | 3450 | 896
C=Cc1c(F)ccc2cc(O)cc(-c3ncc4c(N(C)[C@@H]5C[C@H]5F)nc(OC[C@@]56CCCN5C[C@H](F)C6)nc4c3F)c12.O=C(O)C(F)(F)F (mixture of isomers) [Compound 16, 6-fluoro-4-(8-fluoro-4-((trans-2-fluorocyclopropyl)(methyl)amino)-2-(((2R,7aS)-2-fluorotetrahydro-1H-pyrrolizin-7a(5H)-yl)methoxy)pyrido[4,3-d]pyrimidin-7-yl)-5-vinylnaphthalen-2-ol 2,2,2-trifluoroacetic acid] | > 1000 | 75.3 | 187 | 402 | 696 | 165
C#Cc1c(F)ccc2cc(O)cc(-c3ncc4c(N(C)C5CC5)nc(OC[C@@]56CCCN5C[C@H](F)C6)nc4c3F)c12 [Compound 1, 4-(4-(cyclopropyl(methyl)amino)-8-fluoro-2-(((2R,7aS)-2-fluorotetrahydro-1H-pyrrolizin-7a(5H)-yl)methoxy)pyrido[4,3-d]pyrimidin-7-yl)-5-ethynyl-6-fluoronaphthalen-2-ol] | > 1000 | 61 | 227 | ~1000 | 3000 | 1120
C#Cc1c(F)ccc2cc(O)cc(-c3ncc4c(N(C)[C@H]5C[C@@H]5F)nc(OC[C@@]56CCCN5C[C@H](F)C6)nc4c3F)c12 [Compound 3A, 5-ethynyl-6-fluoro-4-(8-fluoro-4-(((1S,2S)-2-fluorocyclopropyl)(methyl)amino)-2-(((2R,7aS)-2-fluorotetrahydro-1H-pyrrolizin-7a(5H)-yl)methoxy)pyrido[4,3-d]pyrimidin-7-yl)naphthalen-2-ol] | 602 | 15.4 | 46.6 | 141 | 1260 | 490

Like-named read-outs stand apart in the source and are kept apart here.
